The data set deals with C3b, P01024.
Sequence of C3b, P01024 (P01024 whole entry, looked up): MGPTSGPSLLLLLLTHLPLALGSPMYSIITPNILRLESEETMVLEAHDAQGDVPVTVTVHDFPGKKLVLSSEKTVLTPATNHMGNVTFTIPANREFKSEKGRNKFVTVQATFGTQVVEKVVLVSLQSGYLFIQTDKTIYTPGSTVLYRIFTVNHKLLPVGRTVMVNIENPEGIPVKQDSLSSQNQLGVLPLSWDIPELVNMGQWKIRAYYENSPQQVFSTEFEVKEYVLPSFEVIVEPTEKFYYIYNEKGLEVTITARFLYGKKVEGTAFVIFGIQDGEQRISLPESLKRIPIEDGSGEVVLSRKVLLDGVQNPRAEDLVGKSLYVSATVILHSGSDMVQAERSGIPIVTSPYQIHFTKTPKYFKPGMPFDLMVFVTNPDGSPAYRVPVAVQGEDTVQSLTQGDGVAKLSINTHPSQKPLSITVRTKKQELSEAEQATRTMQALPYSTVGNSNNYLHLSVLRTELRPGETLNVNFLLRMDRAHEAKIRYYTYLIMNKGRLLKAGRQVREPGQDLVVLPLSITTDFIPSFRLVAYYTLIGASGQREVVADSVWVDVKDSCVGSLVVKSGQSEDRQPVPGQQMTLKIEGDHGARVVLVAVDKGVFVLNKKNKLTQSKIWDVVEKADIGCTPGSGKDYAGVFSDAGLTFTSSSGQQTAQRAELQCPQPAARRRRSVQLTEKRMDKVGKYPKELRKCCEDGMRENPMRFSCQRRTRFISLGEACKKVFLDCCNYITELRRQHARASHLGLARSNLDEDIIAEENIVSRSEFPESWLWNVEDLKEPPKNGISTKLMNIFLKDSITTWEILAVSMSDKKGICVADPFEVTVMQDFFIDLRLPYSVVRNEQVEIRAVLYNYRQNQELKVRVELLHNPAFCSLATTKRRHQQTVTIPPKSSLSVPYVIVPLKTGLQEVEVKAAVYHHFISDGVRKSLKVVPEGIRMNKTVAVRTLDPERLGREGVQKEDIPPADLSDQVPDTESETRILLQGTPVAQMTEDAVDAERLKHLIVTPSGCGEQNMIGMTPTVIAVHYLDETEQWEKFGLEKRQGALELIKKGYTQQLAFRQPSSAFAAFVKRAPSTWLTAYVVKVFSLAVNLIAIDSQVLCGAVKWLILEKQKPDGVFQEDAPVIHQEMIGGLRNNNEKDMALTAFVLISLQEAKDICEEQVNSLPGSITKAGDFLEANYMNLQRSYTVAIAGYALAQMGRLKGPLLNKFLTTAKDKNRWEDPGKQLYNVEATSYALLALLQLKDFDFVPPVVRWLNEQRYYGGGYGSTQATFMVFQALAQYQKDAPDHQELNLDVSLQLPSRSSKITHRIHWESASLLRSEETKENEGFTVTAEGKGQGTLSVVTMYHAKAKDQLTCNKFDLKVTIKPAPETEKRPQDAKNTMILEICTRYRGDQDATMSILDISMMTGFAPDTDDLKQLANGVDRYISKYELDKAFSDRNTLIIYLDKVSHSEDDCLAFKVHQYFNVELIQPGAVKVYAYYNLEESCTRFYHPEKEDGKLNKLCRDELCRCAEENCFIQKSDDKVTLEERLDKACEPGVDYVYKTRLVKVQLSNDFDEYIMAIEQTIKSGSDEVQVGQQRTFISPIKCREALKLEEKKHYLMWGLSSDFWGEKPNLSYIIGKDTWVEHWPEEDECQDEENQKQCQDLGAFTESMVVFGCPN

B1: Factor B (protein)
chain: TPWSLARPQGSCSLEGVEIKGGSFRLLQEGQALEYVCPSGFYPYPVQTRTCRSTGSWSTLKTQDQKTVRKAECRAIHCPRPHDFENGEYWPRSPYYNVSDEISFHCYDGYTLRGSANRTCQVNGRWSGQTAICDNGAGYCSNPGIPIGTRKVGSQYRLEDSVTYHCSRGLTLRGSQRRTCQEGGSWSGTEPSCQDSFMYDTPQEVAEAFLSSLTETIEGVDAEDGHGPGEQQKRKIVLDPSGSMNIYLVLDGSDSIGASNFTGAKKCLVNLIEKVASYGVKPRYGLVTYATYPKIWVKVSEADSSNADWVTKQLNEINYEDHKLKSGTNTKKALQAVYSMMSWPDDVPPEGWNRTRHVIILMTDGLHNMGGDPITVIDEIRDLLYIGKDRKNPREDYLDVYVFGVGPLVNQVNINALASKKDNEQHVFKVKDMENLEDVFYQMIDESQSLSLCGMVWEHRKGTDYHKQPWQAKISVIRPSKGHESCMGAVVSEYFVLTAAHCFTVDDKEHSIKVSVGGEKRDLEIEVVLFHPNYNINGKKEAGIPEFYDYDVALIKLKNKLKYGQTIRPICLPCTEGTTRALRLPPTTTCQQQKEELLPAQDIKALFVSEEEKKLTRKEVYIKNGDKKGSCERDAQYAPGYDKVKDISEVVTPRFLCTGGVSPYADPNTCRGDSGGPLIVHKRSRFIQVGVISWGVVDVCKNQKRQKQVPAHARDFHINLFQVLPWLKEKLQDEDLGFL
Consider B1, for which the “Factor B activation (cleavage of factor B into Bb and Ba by factor D, SDS-PAGE)” value was “Factor B was activated very rapidly in the presence of Human C3”; the “Factor B cleavage time course (convertase formation)” value is “C3b formed a convertase very efficiently”.

The values are drawn from patent publication US20080311132.
